# In all, about 420,000 compounds went through this assay and about 50,000 (12%) were called active. This list was built around the results that the source calls inconclusive (neither active nor inactive); the mix of calls is not that of the screen. The call rests on the fitted dose curve; in most records, active means well fitted inhibition curve with a large enough effect; inconclusive means small, poorly fitted or top-dose-only effect; inactive means flat fitted curve, though single readings scatter. Potencies of inconclusive entries are left out as doubtful fits.
# Experiment: qHTS for Inhibitors of human tyrosyl-DNA phosphodiesterase 1 (TDP1): qHTS in cells in presence of CPT; further: nearly all actives have a fitted effect of over 55% in size
# Settings: chicken DT40 Tdp1-/-;hTDP1 cells + 20 nM CPT, ATP luminescence, 48 h; activity change, negative = growth inhibition: at 46.2 µM (top of the series)
# Procedure, shortened: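 Chicken DT40 Tdp1-/- cells complemented with human TDP1, 400 cells/well, exposed to compounds plus 20 nM camptothecin for at least 48 h at 37 C; viability read as ATP content by CellTiter-Glo luminescence.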
# On the % scale 0 is the no-effect control and ±100 the full control effect; potency means the concentration at half of the fitted maximal effect; tags describe the fitted curve by direction and shape.
Compound,Potency,"activity change, negative = growth inhibition"
CCCN(C(=O)c1cc2c(=O)n(CC)c3ccccc3c2s1)c1ccccc1F,active: 8.2 µM,–
CCOC(=O)C1CCN(C(=O)CCCn2nc(CC)n3c(cc4occc43)c2=O)CC1,–,inactive: -7.02%
C=CCn1c(COc2ccc(Cl)cc2)nnc1SCC(=O)c1c(N)n(C)c(=O)n(C)c1=O,–,inactive: 0.214%
COc1cc(NC(=O)c2cc3nc(-c4ccc(C)cc4)cc(C(F)(F)F)n3n2)cc(OC)c1OC,"inconclusive [inhibitor, single point]",–
COc1ccc(NC(=O)NC23CC4CC(CC(C4)C2)C3)cc1OC,–,inactive: -17.5%
COc1ccc(CN2C(=O)C(CC(=O)NCCCCc3ccccc3)CC(C(=O)N(C(C)C)C(C)C)=C2C)cc1 (configuration not stated),active: 13 µM,–
CN1CCN(S(=O)(=O)c2ccc(NC(=O)Nc3cccc(Cl)c3)cc2)CC1,"inconclusive [inhibitor, single point]",–
COc1ccc(Cl)cc1C1=NOC2(CCC2)C(=O)N1Cc1ccc(NC(C)=O)cc1,"inconclusive [inhibitor, single point]",–
CC(=O)N1CCN(c2cc(N3CCc4ccccc4C3)c(F)cc2[N+](=O)[O-])CC1,"inconclusive [inhibitor, partial curve, poor fit]",–
Cc1nn(Cc2ccc(C(=O)N3N=C(C(F)F)CC3(O)C(F)F)o2)c(C)c1[N+](=O)[O-] (configuration not stated),"inconclusive [inhibitor, single point]",–
O=C(c1ccc(Nc2nc3ccccc3n3nnnc23)cc1)N1CCN(c2ccc(F)cc2)CC1,active: 10.3 µM,–
O=C1CC(=O)N(Cc2ccco2)C(=O)N1,–,inactive: 6.01%
Cc1nnc(Sc2cc(NCCO)c([N+](=O)[O-])c3nonc23)s1,active: 3.26 µM,–
O=C(NCc1cccc(Cl)c1)C1Cc2c(-c3ccccc3Oc3ccccc3)ccnc2O1 (configuration not stated),active: 23.1 µM,–
COc1ccc(C2c3c(n(C)c4ccccc34)C(=O)N2CC(=O)Nc2ccccc2Cl)cc1 (configuration not stated),"inconclusive [inhibitor, single point]",–
CCC(C)NC(=O)CSc1nc(-c2cccs2)cc(C(F)(F)F)n1 (configuration not stated),"inconclusive [inhibitor, single point]",–
Brc1ccc2ncc(Br)cc2c1,–,inactive: 2.99%
CCCCSc1nnc2n(CCc3ccccc3)c(=O)c3c4c(sc3n12)COC(C)(C)C4,active: 23.1 µM,–
CCOc1ccc(NC(=O)CN(C)C(=O)C2CC(=O)N(c3cccc(SC)c3)C2)cc1OCC (configuration not stated),–,inactive: -9.66%
O=C(COC(=O)CNC(=O)c1ccccc1F)Nc1cccnc1Cl,–,inactive: -13.2%
O=c1cc(C(F)(F)F)[nH]c2ccc(OC(F)(F)F)cc12,active: 20.6 µM,–
O=C(c1ccc(CS(=O)(=O)c2ccc(Br)cc2)o1)N1CCN(c2ncccn2)CC1,"inconclusive [inhibitor, single point]",–
Cc1ccc(NC(=O)CC(C)c2ccccc2)cc1S(=O)(=O)N1CCOCC1 (configuration not stated),"inconclusive [inhibitor, single point]",–
Cc1ccc(SCCCn2cnc3ccccc3c2=O)cc1,"inconclusive [inhibitor, partial curve]",–

Compound,Potency,"activity change, negative = growth inhibition"
O=C(NCCCc1nc2ccccc2n1CCCCOc1ccccc1)C1CCCCC1,"inconclusive [inhibitor, single point]",–
COc1ccc(CCNC(=O)c2cnc3sc(N4CCOCC4)nn3c2=O)cc1OC,–,inactive: -18.3%
O=C(N/N=C/c1ccccn1)c1cc(-c2ccccc2Cl)n[nH]1,"inconclusive [inhibitor, single point]",–
Cc1ccc(C(C2C(=O)CC(C)(C)CC2=O)C2C(=O)CC(C)(C)CC2=O)s1,"inconclusive [inhibitor, single point]",–
CN=C(Nc1ccc(C)c(C)c1)SC1CC(=O)N(c2ccc(OC)cc2)C1=O (configuration not stated),"inconclusive [inhibitor, single point]",–
O=S(=O)(Nc1ccc(F)cc1F)c1ccc(Br)s1,–,inactive: -22.6%
O=c1oc2ccccc2c(Nc2ccccc2O)c1[N+](=O)[O-],–,inactive: -13.1%
CCOC(=O)N1CCC(N2Cc3cccc(C(=O)N4CCN(c5cccc(Cl)c5)CC4)c3C2=O)CC1,"inconclusive [inhibitor, single point]",–
COc1ccc(NC(=O)C2(C)CCN2CCc2ccccc2)cc1OC (configuration not stated),"inconclusive [inhibitor, single point]",–
S=C(Nc1ccccc1)Nc1ccc(Cl)cc1Cl,active: 18.4 µM,–
COc1ccc(OCc2ccc(-c3nc(C#N)c(N4CCC(C(N)=O)CC4)o3)o2)cc1,"inconclusive [inhibitor, single point]",–
CCOc1ccc(C(=O)NC(=S)Nc2ccccn2)cc1[N+](=O)[O-],–,inconclusive: -30.1% [inhibitor]
O=C(CCCn1c(=O)[nH]c2ccccc2c1=O)N1CCN(c2ccccn2)CC1,–,inactive: -13.2%
CN(CC(=O)Nc1ccccc1Br)C(=O)CCSc1ccc(F)cc1,"inconclusive [inhibitor, partial curve]",–
CCO[C@H]1OC(C(=O)NCc2nc3ccccc3[nH]2)=C[C@@H](c2ccc3c(c2)OCO3)[C@@H]1CCCO,"inconclusive [inhibitor, single point]",–
O=c1c(Sc2ccccc2)c(C(F)(F)F)[nH]n1-c1ccccc1,"inconclusive [inhibitor, single point]",–
O=C1CCC(=O)O1,–,inactive: -0.487%
N#C/C(=C\c1cccc(Oc2ccccc2)c1)C(=O)N1CCOCC1,"inconclusive [inhibitor, single point]",–
Cc1nc(S(=O)(=O)N(C)c2ccccc2)c(C#N)c(C)c1Cl,active: 23.1 µM,–
CCc1cc2c(=O)c(-c3nc4ccccc4[nH]3)coc2c(CN2CCCCC2C)c1O (configuration not stated),"inconclusive [inhibitor, single point]",–
CCn1c2c(c(=O)n3ncc(C(=O)Nc4ccc(OC(F)(F)F)cc4)c13)CN(Cc1ccc(OC)cc1)CC2,"inconclusive [inhibitor, single point]",–
COc1ccc(CCNC(=O)c2c[nH]n3c(=O)c(Cc4ccccc4Cl)c(C)nc23)cc1OC,"inconclusive [inhibitor, single point]",–
Cc1ccc(-c2csc(/C(C#N)=C(\O)CCl)n2)cc1,"inconclusive [inhibitor, single point]",–
CC(=O)N1CCN(c2ccc([N+](=O)[O-])cc2)CC1,–,inactive: 8.77%

Compound,Potency,"activity change, negative = growth inhibition"
O=C(O)CC1CCC(=C(Cl)Cl)C1 (configuration not stated),active: 1.03 µM,–
CCOC(=O)N1CCN(S(=O)(=O)c2ccc3c(c2)CC(C)N3C(=O)C2CC2)CC1 (configuration not stated),"inconclusive [inhibitor, single point]",–
CCOC(=O)c1cn2nc(-c3ccc(OCC)cc3)cc2nc1C1CCN(C(=O)OC(C)(C)C)CC1,"inconclusive [inhibitor, single point]",–
CCN(CCC#N)c1ccc(/C=C/c2ccnc3ccccc23)cc1,"inconclusive [inhibitor, single point]",–
COC(=O)c1ccc(C(C(=O)NC2CCCCC2)N(Cc2ccccc2)C(=O)Cc2cccs2)cc1 (configuration not stated),active: 3.26 µM,–
CCC(CC)C(=O)c1c[nH]c(C(=O)NCc2ccc(F)cc2)c1,–,inactive: -26.1%
COc1cccc(NC(=O)CN(C)CC(=O)Nc2ccc(C)cc2Cl)c1,"inconclusive [inhibitor, partial curve, poor fit]",–
CCCCCC(=O)N/N=C/c1ccc([N+](=O)[O-])o1,active: 11.2 µM,–
CC1CCN(c2ccc(-c3cccc(NS(=O)(=O)c4cccs4)c3)nn2)CC1,–,inactive: -7.76%
O=C(NCc1cccs1)c1ccc(CSc2nc3cccnc3n2Cc2ccc(F)cc2)cc1,"inconclusive [inhibitor, single point]",–
O=C(c1ccc(F)cc1)N1CCCN(c2nc(-c3ccccc3)ns2)CC1,"inconclusive [inhibitor, single point]",–
CC1CC1C(=O)OCC(=O)Nc1ccccc1Oc1ccccc1 (configuration not stated),"inconclusive [inhibitor, single point]",–
CCOC(=O)c1nn(-c2ccccc2)c2nc(-c3ccc(OC)cc3)c(C#N)c(=O)n12,–,inactive: -23.9%
Cc1ccc(-c2cnc(C(O)c3ccc(Cl)c(F)c3)[nH]2)cc1 (configuration not stated),"inconclusive [inhibitor, single point]",–
CNC(=S)NCCc1ccccc1,–,inactive: 17.7%
COc1ccccc1CNc1ccc(-c2nc(-c3ccccc3C)no2)cc1[N+](=O)[O-],"inconclusive [inhibitor, full curve]",–
CCc1ccccc1NC(=O)CSc1nc2n[nH]c(C)c2c(=N)n1-c1cccc(C)c1,active: 7.31 µM,–
COC(=O)Cn1cnc2c(Cl)nc(F)nc21,active: 13 µM,–
CCOc1ccc(-c2nnc(NC(=O)Cc3cc(OC)c(OC)c(OC)c3)o2)cc1,–,inactive: 1.06%
COc1cc(CN(C)C(=O)C2CCN(S(=O)(=O)c3cccs3)CC2)ccc1OC(F)F,"inconclusive [inhibitor, single point]",–
CCCNc1nc2c(c(=O)n(C)c(=O)n2C)n1CCC(C)C,active: 16.4 µM,–
CN1C(=O)[C@H]2[C@@H](C3CC3)N3C(=O)CN(Cc4ccc(-c5ccccc5)cc4)C(=O)[C@@]3(C)[C@H]2C1=O,–,inactive: -24.7%
CCCCCCC(=O)Nc1nc(C)c(-c2csc(Nc3ccccc3OC)n2)s1,"inconclusive [inhibitor, single point]",–
C=CC[C@@H](CC(=O)NCCO)C(=O)NC[C@H](OC(=O)[C@@H](CC=C)Cc1ccc(F)cc1)c1ccccc1,active: 14.6 µM,–

# From PubChem BioAssay AID686979 (National Center for Advancing Translational Sciences (NCATS), 2013)
